This is one part of the list. These are further read-outs of the screen, such as a control signal, another cell line or another target. No call is given for them. Numbered stars: 1 amine (or outer) side, 2 acyl side, 3 side chain; on linkers, the order of the positions; unused ones are H or OH. Bridge positions count the residues as written; N and C are the ends. Square brackets hold non-standard residues; d marks the D form. Peptide text beside a SMILES is read from it. * marks the point of attachment. pTerphenylCO(4''-OnC5H11) = CCCCCOc1ccc(-c2ccc(-c3ccc(C(=O)*)cc3)cc2)cc1; Orn(4R-OH,5R-OH) = O=C([C@H](C[C@@H](O)[C@@H](O)N[*:3])N[*:1])[*:2]; hTyr(3S-OH,4S-OH) = N[C@H](C(=O)O)[C@H](O)[C@@H](O)c1ccc(O)cc1; Pro(3S-OH,4S-Me) = C[C@H]1CN[C@H](C(=O)O)[C@H]1O; Hyp = O=C(O)[C@@H]1C[C@@H](O)CN1
Assays:
Assay in all cases: Primary Screen for Target Class Profiling of Small Molecule Inhibitors of Methyltransferases
[1] = molecular target: Glycine N-methyltransferase (Homo sapiens) (UniProt Q14749); details: purified enzyme, MTase-Glo SAH luminescence; measured here: GNMT inhibition; at 40 µM; stronger effect = lower value
How it was run: (§1)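 Each enzyme was assayed with SAM and its substrate. SAH formation detected by MTase-Glo luminescence; single-point 40 uM screen[…].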

[2] = molecular target: Guanidinoacetate N-methyltransferase (Homo sapiens) (UniProt Q14353); details: purified enzyme, MTase-Glo SAH luminescence; measured here: GAMT inhibition; at 40 µM; stronger effect = lower value
How it was run: as §1

[3] = molecular target: Histamine N-methyltransferase (Homo sapiens) (UniProt P50135); details: purified enzyme, MTase-Glo SAH luminescence; measured here: HNMT inhibition; at 40 µM; stronger effect = lower value
How it was run: as §1

[4] = molecular target: Nicotinamide N-methyltransferase (Homo sapiens) (UniProt P40261); details: purified enzyme, MTase-Glo SAH luminescence; measured here: NNMT inhibition; at 40 µM; stronger effect = lower value
How it was run: as §1

[5] = molecular target: Phenylethanolamine N-methyltransferase (Homo sapiens) (UniProt P11086); details: purified enzyme, MTase-Glo SAH luminescence; measured here: PNMT inhibition; at 40 µM; stronger effect = lower value
How it was run: as §1
% is set by controls: 0 for no effect and ±100 for the full control effect.

SMILES | activity change, negative = inhibition [1] [%] | activity change, negative = inhibition [2] [%] | activity change, negative = inhibition [3] [%] | activity change, negative = inhibition [4] [%] | activity change, negative = inhibition [5] [%]
CC(C)(O)C1CC=C(C(=O)OC[C@H]2O[C@@H](OC(=O)C3=CCC(C(C)(C)O)CC3)[C@H](O)[C@@H](O)[C@@H]2O)CC1 (some centres not stated) | 1.33 | 5.22 | -3.59 | -8.45 | 4.82
CCOc1cccc(C2c3cccn3-c3sc4c(c3CN2C(=O)Nc2cc(OC)ccc2OC)CCCC4)c1 (configuration not stated) | -0.883 | 2.91 | -3.35 | 1.2 | 0.174
CCOC(=O)C1=C(CN2CCn3cccc3C2C)NC(=O)NC1c1ccc(C)cc1 (configuration not stated) | 1.55 | 0 | 3.12 | -2.64 | 1.52
CC1(C(=O)NCc2ccccc2)Cn2nc(-c3ccccc3)cc2C(=O)N1c1ccc(Cl)cc1 (configuration not stated) | 3.97 | 4.54 | 3.88 | 2.68 | 2.72
C[N+](C)(C)CCOP(=O)(O)OP(=O)([O-])OC[C@H]1O[C@@H](n2ccc(N)nc2=O)[C@H](O)[C@@H]1O | 0.18 | 11.7 | 4.92 | -4.64 | 6.94
CCn1c(=O)n(CC)c2cc(S(=O)(=O)Nc3ccc(C)c(Cl)c3)ccc21 | -4.78 | 1.82 | -5.04 | -25.3 | -3.48
CCCC[C@@]1(C2CCCC2)Cc2cc(OCC(=O)O)c(Cl)c(Cl)c2C1=O | -16.2 | 8.7 | -0.679 | -68.1 | 10.3
O=c1c2ccccc2n2c(SCc3cccc(F)c3)nnc2n1Cc1ccc(F)cc1 | -0.293 | -2.22 | -2.8 | -6.45 | -6.57
CCOc1ccc(NC(=S)N2CCC(C(O)(c3ccccc3)c3ccccc3)CC2)cc1 | -2.41 | -14.8 | 6.33 | -28.3 | -5.31
COc1ccc([C@H]2C[C@@H](O)[C@@H](O)[C@@H]2N2CCCCC2)cc1 | -2.88 | -2.99 | -2.65 | -5.38 | 10.5
O=c1c2cc(-c3cccs3)nn2ccn1CC(O)c1cccc(Cl)c1 (configuration not stated) | -5.99 | -1.19 | -1.55 | -5.15 | 3.28
COc1cc2c(cc1OC)C1CC(=O)C(CC(C)C)CN1CC2 (configuration not stated) | -3.31 | 8.33 | 5.06 | -6.42 | 4.18
CN(CCc1noc(C2CN(C(=O)CN3CCCCCC3)C2)n1)S(C)(=O)=O | -1.52 | -1.9 | -4.12 | 6.04 | 6.24
Cc1cccc(-n2ncc3c2CCCC3NC(=O)CN2CCNC(=O)C2)c1C (configuration not stated) | -0.49 | 0.891 | -1.14 | -18.3 | 10.3
Cc1nc(C2(C)CCN(C(=O)c3ccc(Cc4c(C)noc4C)o3)CC2)no1 | -2.59 | 2.2 | 2.63 | 0.794 | -1.93
Cc1cccc(CNC(=O)C2(C)Cn3cnc(C(=O)NC4CCCC4)c3C(=O)N2C2CC2)c1 (configuration not stated) | 5.38 | 1.88 | 12.8 | 6.01 | 16.7
COCCCNC(=O)C1(C)Cn2nc(-c3ccccc3)cc2C(=O)N1Cc1cccc(C)c1 (configuration not stated) | 0.367 | 3.13 | 3.04 | 0.741 | -5.88
Cc1nc(C2CC(O)C2)cc(N2CCN(C(=O)c3cccs3)CC2)n1 (configuration not stated) | -3.55 | 1.47 | -1.53 | -3.17 | 1.26
CCCCCOc1ccc(-c2ccc(-c3ccc(C(=O)N[C@H]4C[C@@H](O)[C@@H](O)NC(=O)[C@@H]5[C@@H](O)[C@@H](C)CN5C(=O)[C@H]([C@@H](C)O)NC(=O)[C@H]([C@H](O)[C@@H](O)c5ccc(O)cc5)NC(=O)[C@@H]5C[C@@H](O)CN5C(=O)[C@H]([C@@H](C)O)NC4=O)cc3)cc2)cc1 ({pTerphenylCO(4''-OnC5H11)}-[Orn(4R-OH,5R-OH)]T[Hyp][hTyr(3S-OH,4S-OH)]T[Pro(3S-OH,4S-Me)]; lactam 1-C) | -2.3 | 14.5 | 6.32 | -5.36 | 4.44
COC[C@@]12CC[C@@H](N3CCOCC3)C[C@H]1CCN(c1nccc(N)n1)C2 | -3.65 | -6.67 | -3.15 | -11.8 | -8.68
CCCn1c(=O)c2ccc(C(=O)NC(C)C)cc2n2c(SCC(=O)Nc3cccc(Cl)c3)nnc12 | -2 | 2.92 | 2.68 | 0.243 | 0.308
CC(C)c1nc(N(C)S(C)(=O)=O)nc(-c2ccc(F)cc2)c1/C=C/[C@@H](O)C[C@@H](O)CC(=O)O | -7.78 |  | 12 |  | 
C/C=C(\C)C(=O)O[C@H]1C=C(CO)C(=O)[C@H](OC(C)=O)[C@H]1C(C)C | -3.45 | -0.418 | 0.332 | -15.9 | -8.26
CC1(C(=O)NC2CCCC2)Cn2c(cc3sccc32)C(=O)N1C1CCCCCC1 (configuration not stated) | 1.46 | 11.8 | 5.84 | 3.82 | -0.586
COc1ccc2c(c1)c(-n1cccc1)c1n2CC(C)(C(=O)NC2CCCCC2)N(Cc2ccc(Cl)cc2)C1=O (configuration not stated) | -5.85 | 0 | 2.73 | -1.68 | -1.29
CC[C@H]1CN(C(=O)NC(C)C)CC[C@H]1CC(=O)N1CCC(C(=O)OC)CC1 | -3.81 | -4.17 | -2.13 | -5.08 | -2.48

SMILES | activity change, negative = inhibition [1] [%] | activity change, negative = inhibition [2] [%] | activity change, negative = inhibition [3] [%] | activity change, negative = inhibition [4] [%] | activity change, negative = inhibition [5] [%]
CCC(C)NC(=O)c1ccc2c(=O)n(Cc3ccccc3)c3nn(CC(=O)NC(C)C)c(=O)n3c2c1 (configuration not stated) | 3.36 | 0 | 3.17 | 1.43 | 2.51
Cn1c(=O)c2ccc(C(=O)NC3CCCC3)cc2n2c(=O)n(CC(=O)NC3CCCC3)nc12 | 3.93 | 0.981 | 0.664 | 3.37 | 4.32
CC(C)CCNC(=O)CCc1nnc2n(Cc3ccccc3Cl)c(=O)c3ccccc3n12 | -7.62 | 0.296 | -1.48 | -5.76 | -4.25
COc1cc2c(Oc3ccc(-c4cnc(Nc5ccc(F)cc5)n(C)c4=O)cc3F)ccnc2cc1OCCCN1CCOCC1 | 3.22 | 16.5 | 11.4 | -6.1 | 6.96
Cc1nc2ccccc2n1CCNC(=O)CC[C@H]1NC(=O)c2ccccc2NC1=O | -5.93 | -9.12 | -3.03 | -13.8 | 5.77
OC[C@H]1O[C@@H](OCCc2ccccc2)[C@H](O[C@@H]2OC[C@@H](O)[C@H](O)[C@H]2O)[C@@H](O)[C@@H]1O | -5.62 | 2.17 | 4.17 | -8.76 | 6.36
CC1(C(=O)NC2CCCCC2)Cn2c(nc3ccccc32)C(=O)N1Cc1cccc(Br)c1 (configuration not stated) | 1.11 | 0.109 | -0.997 | -0.076 | -4.02
Cc1ccccc1N1C(=O)c2cc(C3CC3)nn2CC1(C)C(=O)NC1CCCCCC1 (configuration not stated) | -1.26 | 0.28 | 3.39 | 4.2 | -1.77
CCOC(=O)COc1ccc2c(c1)C[C@@H](NC[C@H](O)c1cccc(Cl)c1)CC2 | 0.695 | 15.9 | 7.74 | -4.11 | -0.409
CCc1ccc(CNc2ncncc2-c2nc(-c3ccccc3)no2)cc1 | -1.55 | 2.48 | 0.784 | -3.71 | 11.1
CC(=O)Nc1cc(-c2cc(C(=O)NCc3cccnc3)c3c(c2)N(C)CCO3)ccn1 | -62.5 | -44.1 | -68.9 | -42.9 | -28.8
COc1ccc(Cn2c(=O)c3ccccc3n3c(-c4cccc(Cl)c4)nnc23)cc1 | 1.08 | 2.67 | 8.11 | 6.2 | 1.54
COc1ccc(NC(=O)c2nc3sccn3c2-c2ccncc2)cc1 | -6.74 | -0.25 | 1.58 | -2.42 | 8.54
CC(=O)Nc1c2n(c3ccc(F)cc13)CC(C)(C(=O)NC1CCCCC1)N(Cc1ccco1)C2=O (configuration not stated) | -10.5 | -1.8 | 0.864 | -6.05 | -6.65
O=C(Nc1ccc(-n2nc(C(F)(F)F)cc2C(F)(F)F)cc1)c1ccncc1F | 6.42 | 17.1 | 11.2 | 2.39 | 8.93
COc1ccc(Cl)cc1Nc1ncncc1-c1nc(-c2ccccc2)no1 | -2.62 | 2.82 | -1.54 | -1.15 | -0.771
CC(CCC1(O)OC2CC3C4CC=C5C[C@@H](O[C@@H]6O[C@H](CO)[C@@H](O[C@@H]7O[C@@H](C)[C@H](O)[C@@H](O)[C@H]7O)[C@H](O)[C@H]6O[C@@H]6O[C@@H](C)[C@H](O)[C@@H](O)[C@H]6O)CC[C@]5(C)C4CC[C@]3(C)[C@@]2(O)[C@@H]1C)CO[C@@H]1O[C@H](CO)[C@@H](O)[C@H](O)[C@H]1O (some centres not stated) | 5.87 | 5.64 | 15.3 | -8 | 9.04
Cc1cccc(N2CCN(S(=O)(=O)c3cc4[nH]c(=O)[nH]c4cc3Cl)CC2)c1C | -4.35 | 3.63 | -3.35 | -3.88 | -2.87
Cc1ccc(CN2CCC3(CC2)CN(c2ncccn2)CC3CO)cc1C (configuration not stated) | -6.29 | -3.76 | -7.85 | -9.29 | -4.55
Cc1cnc(-c2cccnc2)n1C1CCN(S(=O)(=O)c2ccc3c(c2)OCCO3)CC1 | -6.41 | 0 | -1.76 | -11.9 | -3.4
COc1ccccc1CNC(=O)C1(C)Cn2cnc(C(=O)NCc3cccc(C)c3)c2C(=O)N1C1CC1 (configuration not stated) | -11.7 | -3.09 | -11.7 | -11.6 | -11.1
CCCN1CCn2c3c(c4cc(OC)ccc42)CCN=C31 | 1.14 | 4.57 | -47.4 | 4.51 | -1.25
CN1CCN(C(=O)[C@@H]2CCC[C@@H](NCc3cnn(C)c3)CN(C)C(=O)C2)CC1 | -5.18 | -16.1 | -3.54 | -15.5 | -10.7
CN(C)Cc1nnc(C2CC(NC(=O)Cc3c[nH]c(=O)n(C)c3=O)C2)n1C (configuration not stated) | -5.15 | -9.8 | -3.08 | -9.32 | 4.31
O=C(CCn1ccc2cc(S(=O)(=O)N3CCCC3)ccc21)NCCc1ccco1 | 2.33 | 3.3 | 5.13 | -0.332 | 2.3
